Results from article PMC4336329 (PLoS ONE, 2015).
About 2,200 (0.71%) of roughly 310,000 compounds showed an effect of 50% or more. Effects have a minus sign here. The list shows a part of the results.

These compounds were tested against human ether-à-go-go-related gene (hERG) potassium channel (human, UniProt Q12809) (assay: primary screen, population patch clamp on CHO cells stably expressing hERG).
Chain of human ether-à-go-go-related gene (hERG) potassium channel (Q12809 whole entry, looked up): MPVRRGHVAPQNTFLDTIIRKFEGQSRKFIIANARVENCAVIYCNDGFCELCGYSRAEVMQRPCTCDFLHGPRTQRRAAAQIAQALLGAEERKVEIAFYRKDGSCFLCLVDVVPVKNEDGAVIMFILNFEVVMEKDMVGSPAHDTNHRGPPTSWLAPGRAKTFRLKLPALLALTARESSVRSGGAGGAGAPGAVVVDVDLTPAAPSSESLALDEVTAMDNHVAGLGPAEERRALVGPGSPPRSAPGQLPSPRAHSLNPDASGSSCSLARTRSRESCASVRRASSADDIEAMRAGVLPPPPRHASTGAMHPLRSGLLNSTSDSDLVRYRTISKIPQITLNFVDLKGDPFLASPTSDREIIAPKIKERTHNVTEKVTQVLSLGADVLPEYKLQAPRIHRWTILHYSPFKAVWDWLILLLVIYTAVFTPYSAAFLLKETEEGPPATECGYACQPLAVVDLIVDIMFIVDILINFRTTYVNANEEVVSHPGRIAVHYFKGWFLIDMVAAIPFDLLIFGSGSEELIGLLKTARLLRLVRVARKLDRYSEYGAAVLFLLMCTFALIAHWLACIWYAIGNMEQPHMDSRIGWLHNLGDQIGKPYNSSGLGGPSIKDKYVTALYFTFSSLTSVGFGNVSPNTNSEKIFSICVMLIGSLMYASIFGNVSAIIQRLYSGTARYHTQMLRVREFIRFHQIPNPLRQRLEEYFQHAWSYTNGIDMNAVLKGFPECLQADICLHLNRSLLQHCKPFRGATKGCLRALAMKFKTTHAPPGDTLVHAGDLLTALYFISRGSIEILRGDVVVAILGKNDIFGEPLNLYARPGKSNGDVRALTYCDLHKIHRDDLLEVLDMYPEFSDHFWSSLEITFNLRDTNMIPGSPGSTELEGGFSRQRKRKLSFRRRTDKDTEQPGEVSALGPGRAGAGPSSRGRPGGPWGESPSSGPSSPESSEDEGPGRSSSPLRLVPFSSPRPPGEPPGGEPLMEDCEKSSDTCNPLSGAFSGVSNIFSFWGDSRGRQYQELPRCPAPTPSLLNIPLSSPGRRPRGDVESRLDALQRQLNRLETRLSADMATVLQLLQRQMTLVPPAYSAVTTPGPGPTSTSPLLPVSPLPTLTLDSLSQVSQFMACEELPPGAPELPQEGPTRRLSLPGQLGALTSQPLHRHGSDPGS
In the case of `COc1cccc(N(C(C)=O)C2=NCCCS2)c1`, the “hERG current change (%, negative = inhibition) at 1uM” value is reported as 17.3%.
`Cc1ccc(CNC(=O)Cc2ccc(-n3cccc3)cc2)cc1` was tested, and the “hERG current change (%, negative = inhibition) at 1uM” value was 16.9%.
`COC(=O)c1cc2occc2n1Cc1nc(-c2ccccc2Cl)oc1C` was tested, and the “hERG current change (%, negative = inhibition) at 1uM” value was -7.85%.
With `c1csc(-c2nn3c(Cn4nnc5ccccc54)nnc3s2)c1` the “hERG current change (%, negative = inhibition) at 1uM” value was 13.1%.
For `COC(=O)c1ccc(NC(=S)N2CCN(Cc3ccccc3Cl)CC2)cc1`, the “hERG current change (%, negative = inhibition) at 1uM” value was 2.31%.
In the case of `CC1CCc2c(C(=O)Nc3cccc(-c4nn[nH]n4)c3)csc2C1` (stereo not shown), the “hERG current change (%, negative = inhibition) at 1uM” value is reported as 4.9%.
For `O=C(CCSc1nnc(-c2ccco2)o1)Nc1ccc(Cl)cc1`, the “hERG current change (%, negative = inhibition) at 1uM” value was 9.01%.
`N#CCN1C(=O)C(=O)N(Cc2cccc(C(F)(F)F)c2)C1=O` was tested, and the “hERG current change (%, negative = inhibition) at 1uM” value was 13.9%.
`Br.CCCn1c(=N)n(CC(=O)c2ccc(OCC(=O)OC)cc2)c2ccccc21` was tested, and the “hERG current change (%, negative = inhibition) at 1uM” value was -14.1%.
With `CCOc1ccc(NC(=O)CN(C)C(=O)CC2CC3CCC2C3)cc1OCC` (stereo not shown) the “hERG current change (%, negative = inhibition) at 1uM” value was 4.42%.
For `COc1ccccc1OCCNC(=O)CNC(=O)c1ccc(Cl)c(Cl)c1`, the “hERG current change (%, negative = inhibition) at 1uM” value was 4.32%.
With `COc1ccc(-c2cc(C(=O)Nc3cc(S(=O)(=O)N4CCOCC4)ccc3N3CCOCC3)c3ccccc3n2)cc1` the “hERG current change (%, negative = inhibition) at 1uM” value was 4.02%.
`O=C(CCCn1c(=S)[nH]c2ccccc2c1=O)NCc1ccco1` was tested, and the “hERG current change (%, negative = inhibition) at 1uM” value was -0.681%.
With `CC(C)(C)c1ccc(OCC(=O)N/N=C/c2ccsc2)cc1` the “hERG current change (%, negative = inhibition) at 1uM” value was 3.1%.
With `Cc1ccc2nsnc2c1S(=O)(=O)N1CCN(Cc2ccc3c(c2)OCO3)CC1` the “hERG current change (%, negative = inhibition) at 1uM” value was 2.47%.
For `Cc1ccc(S(=O)(=O)NC(=O)N2CCCN(Cc3ccc(F)cc3)CC2)cc1`, the “hERG current change (%, negative = inhibition) at 1uM” value was 10.1%.
In the case of `CCCCNC(=S)NNC(=O)C12CC3CC(CC(C3)C1)C2`, the “hERG current change (%, negative = inhibition) at 1uM” value is reported as -0.28%.
In the case of `Cl.Oc1ccc(CC2CC3CCN2CC3)cc1O` (stereo not shown), the “hERG current change (%, negative = inhibition) at 1uM” value is reported as 9.47%.
With `O=C(N/N=C/c1cc([N+](=O)[O-])ccc1Cl)c1cc(-c2ccccc2)nc2ccccc12` the “hERG current change (%, negative = inhibition) at 1uM” value was 8.66%.
In the case of `COc1ccc(N2CCN(CC(=O)c3ccccc3)CC2)cc1`, the “hERG current change (%, negative = inhibition) at 1uM” value is reported as 12.9%.
With `COc1ccc(C(CC(=O)N2CCCC(C)C2)c2c(OC)cc(OC)c3ccc(=O)oc23)cc1` (stereo not shown) the “hERG current change (%, negative = inhibition) at 1uM” value was 18%.
`O=C(CNc1ccc(F)cc1)N/N=C/C1CC=CCC1` (stereo not shown) was tested, and the “hERG current change (%, negative = inhibition) at 1uM” value was 9.64%.
For `O=C(OCC(=O)N1CCCC1)c1c[nH]c2ccccc12`, the “hERG current change (%, negative = inhibition) at 1uM” value was 9.74%.
In the case of `CCN(CCO)c1ccc(-n2c(N)c(C(=O)OC)c3nc4ccccc4nc32)cc1`, the “hERG current change (%, negative = inhibition) at 1uM” value is reported as -3.69%.
`O=C(O)c1cccc(-c2ccc(/C=N/Nc3ccc([N+](=O)[O-])cc3)o2)c1` was tested, and the “hERG current change (%, negative = inhibition) at 1uM” value was 12%.
In the case of `FC(F)(F)Oc1ccc(NC(=S)NCCCN2CCOCC2)cc1`, the “hERG current change (%, negative = inhibition) at 1uM” value is reported as -9.72%.
`CC[C@H](C)[C@@H]1NC(=O)c2cc([N+](=O)[O-])cc(F)c2OCC[C@@H](C(N)=O)NC(=O)[C@H](CCCCN)NC1=O` was tested, and the “hERG current change (%, negative = inhibition) at 1uM” value was 20.1%.
In the case of `CN1C(c2ccccc2)CC(=NO)CC1c1ccccc1` (stereo not shown), the “hERG current change (%, negative = inhibition) at 1uM” value is reported as 11.1%.
`COc1ccc(/C=C2\SC(N3CCc4ccccc4C3)=NC2=O)cc1OC` was tested, and the “hERG current change (%, negative = inhibition) at 1uM” value was 4.22%.
In the case of `Cc1cc(C)cc(Oc2c(C(F)(F)F)oc3cc(OCC(=O)O)ccc3c2=O)c1`, the “hERG current change (%, negative = inhibition) at 1uM” value is reported as 7.08%.
With `Cc1ccc(C)c(Nc2cc(C(=O)NCc3cccnc3)c3ccccc3n2)c1` the “hERG current change (%, negative = inhibition) at 1uM” value was 7.29%.
`O=[N+]([O-])c1cccnc1Sc1ccccc1Cl` was tested, and the “hERG current change (%, negative = inhibition) at 1uM” value was 16.8%.
With `Cc1ccc(-c2nc3ccc(C)cn3c2CC(=O)N(C)C)cc1.O=C(O)C(O)C(O)C(=O)O` the “hERG current change (%, negative = inhibition) at 1uM” value was -7.11%.
In the case of `Oc1ccccc1/C=N/NP(=S)(c1ccccc1)c1ccccc1`, the “hERG current change (%, negative = inhibition) at 1uM” value is reported as 2.28%.
In the case of `CCCN(CC(=O)Nc1ccccc1OC)C(=O)CCC(=O)c1ccc(Cl)s1`, the “hERG current change (%, negative = inhibition) at 1uM” value is reported as 2.48%.
`Cc1nnc(SCC(=O)Nc2ccc(S(=O)(=O)N3CCCCC3)cc2)s1` was tested, and the “hERG current change (%, negative = inhibition) at 1uM” value was 9.29%.
With `c1ccc2c(c1)ncn2-c1ncnc2sc3c(c12)CCCC3` the “hERG current change (%, negative = inhibition) at 1uM” value was 0.166%.
In the case of `CCOc1cc2[nH]c(=O)n(CCC(=O)NCCc3ccccc3)c(=O)c2cc1OCC`, the “hERG current change (%, negative = inhibition) at 1uM” value is reported as 1.11%.
With `O=C1c2ccc([N+](=O)[O-])cc2C(=O)N1CNc1ccccn1` the “hERG current change (%, negative = inhibition) at 1uM” value was 13.9%.
For `CCCCCN(C(=O)NC(=O)Nc1cccc(C)c1C)S(C)(=O)=O`, the “hERG current change (%, negative = inhibition) at 1uM” value was 14.5%.
`CCOc1cc(-c2cc(N)n[nH]2)cc(OCC)c1OCC` was tested, and the “hERG current change (%, negative = inhibition) at 1uM” value was 18.4%.
In the case of `Cn1c(=O)c(=O)n(C)c2cc(S(=O)(=O)Nc3ccc4c(c3)OCCO4)ccc21`, the “hERG current change (%, negative = inhibition) at 1uM” value is reported as 18.9%.
With `Cc1ccc([N+](=O)[O-])cc1NC(=S)NC(=O)c1ccco1` the “hERG current change (%, negative = inhibition) at 1uM” value was 13.5%.
